Reference: the supplement of paper PMC5895741

B1: MS2 coat protein; the commonest letter at each place (parent)
chain: MASNFTQFVLVDNGGTGDVTVAPSNFANGVAEWISSNSRSQAYKVTCSVRQSSAQNRKYTIKVEVPKVATQTVGGVELPVAAWRSYLNMELTIPIFATNSDCELIVKAMQGLLKDGNPIPSAIAANSGIY

Variants of: B1
Test: apparent fitness score (VLP assembly selection enrichment vs plasmid library) (log10 ratio); higher = better expression / assembly into well-formed VLPs
Method: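 SyMAPS: NNK codon saturation mutagenesis of every codon of the MS2 bacteriophage coat protein (EMPIRIC cloning), expressed overnight in E. coli DH10B at 37 °C. Assembled VLPs were selected by ammonium sulfate precipitation plus FPLC size-exclusion chromatography, and the encapsidated RNA was sequenced. Apparent fitness score = log10 of the mean over 3 biological replicates of (percent abundance in the VLP library / percent abundance in the plasmid library). Variants absent after selection were set to 0.0001, i.e. -4.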
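Further: counts from Illumina MiSeq reads, cDNA of packaged RNA versus plasmid DNA taken before selection, each replicate independent from library construction onward, expression induced with 0.1% arabinose.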

Apparent fitness score (log10), by site and new letter:
Q7: L -0.309 | M -0.448 | N 1.08 | P 0.2 | R 0.619 | S 0.58 | T 0.835 | V -1.39 | W < -4 | Y < -4
F8: A -1.66 | C -0.815 | D -0.419 | E -1.39 | G -1.26 | H -0.481 | I < -4 | K -0.836 | L -1.07 | M -0.459 | N -0.203 | P -1.75 | Q -0.921 | R -0.889 | S -0.556 | T -0.816 | V -0.383 | W -0.226 | Y -0.477
V9: A 0.0863 | C < -4 | D < -4 | E < -4 | F 0.411 | G -1.5 | H < -4 | I 0.712 | K 0.0973 | L 0.441 | M 0.449 | N 0.967 | P -1.07 | Q -0.00238 | R -0.0245 | S -0.419 | T 0.645 | W -0.787 | Y -0.963
L10: A < -4 | C < -4 | D < -4 | E -1.28 | F -1.15 | G -1.18 | H < -4 | I < -4 | K -0.515 | M -0.243 | N -1.5 | P -0.359 | Q < -4 | R < -4 | S -1.69 | T < -4 | V < -4 | W -1.72 | Y -0.309
V11: A -0.883 | C < -4 | D < -4 | E < -4 | F < -4 | G -1.39 | H -1.02 | I 0.421 | K -1.1 | L -2.08 | M < -4 | N < -4 | P -1.26 | Q -1.42 | R < -4 | S -1.46 | T -0.765 | W < -4 | Y < -4
D12: A -0.544 | C -0.883 | E 0.658 | F < -4 | G -2.11 | H < -4 | I -0.544 | K -0.848 | L -0.895 | M -0.427 | N -0.00827 | P -1.24 | Q -0.911 | R -0.795 | S -0.609 | T -1.6 | V -0.389 | W < -4 | Y -0.243
N13: A -0.523 | C 0.474 | D 0.113 | E < -4 | F 0.108 | G 0.113 | H 0.0363 | I -0.515 | K 0.03 | L 0.0725 | M 1.04 | P -1.56 | Q 0.235 | R 0.483 | S -1.01 | T -0.681 | V -0.38 | W -1.03 | Y 0.466
G14: A 0.377 | C -0.272 | D -0.163 | E 0.577 | F < -4 | H 0.129 | I < -4 | K 0.375 | L -1.14 | M -0.565 | N 0.372 | P -1.47 | Q 0.673 | R -1.1 | S -1.08 | T -0.309 | V -0.786 | W < -4 | Y -0.528
G15: A -1.31 | C < -4 | D < -4 | E -0.567 | F -0.965 | H < -4 | I < -4 | K -1.31 | L -1.42 | M < -4 | N < -4 | P -1.73 | Q < -4 | R -2.26 | S -1.88 | T < -4 | V -0.81 | W < -4 | Y < -4
T16: A 0.149 | C 0.304 | D 0.367 | E -0.728 | F 0.185 | G -1.11 | H 0.179 | I 0.73 | K -0.123 | L 0.409 | M 0.981 | N 0.114 | P 0.425 | Q 0.492 | R 0.368 | S 0.402 | V -0.0753 | W -0.278 | Y 0.11
G17: A -0.287 | C 0.259 | D -0.0673 | E -0.735 | F -0.684 | H 0.422 | I < -4 | K 0.0891 | L -1.81 | M 0.15 | N 0.357 | P -2.31 | Q 0.0581 | R -0.217 | S 0.14 | T -0.398 | V -1.02 | W < -4 | Y < -4
D18: A -0.0665 | C < -4 | E -1.01 | F -1.3 | G < -4 | H -1.15 | I -1.08 | K -0.403 | L -1.5 | M < -4 | N 0.308 | P -1.13 | Q -0.515 | R -1.56 | S -0.963 | T -0.909 | V -1.6 | W < -4 | Y -1.15
V19: A -0.192 | C -1.49 | D < -4 | E -0.493 | F -0.722 | G -0.649 | H -0.707 | I 0.931 | K -0.543 | L -0.338 | M -0.832 | N -0.797 | P -0.646 | Q -0.991 | R -1.01 | S -0.914 | T -0.386 | W -1.32 | Y -0.309
T20: A 1.23 | C 0.773 | D -0.0217 | E 0.125 | F 0.322 | G -0.885 | H 0.732 | I 0.859 | K 1.01 | L 0.671 | M 0.931 | N 0.958 | P -1.05 | Q 0.97 | R 0.892 | S 0.921 | V 0.832 | W 0.835 | Y 0.94
V21: A < -4 | C -1.39 | D < -4 | E < -4 | F < -4 | G -1.72 | H -0.933 | I < -4 | K -1.28 | L -1.28 | M -1.44 | N < -4 | P -1.16 | Q -1.72 | R < -4 | S -1.61 | T < -4 | W 0.0657 | Y < -4
A22: C 0.0168 | D -0.963 | E < -4 | F -1.39 | G 0.257 | H 0.251 | I -1.25 | K 0.226 | L -0.739 | M -0.582 | N 0.601 | P -1.15 | Q 0.512 | R 0.283 | S 0.125 | T 0.0558 | V -0.799 | W < -4 | Y -0.802
P23: A < -4 | C -0.786 | D -0.522 | E -1.32 | F -1.66 | G -1.17 | H -0.707 | I -1.32 | K < -4 | L -1.31 | M -0.786 | N -0.213 | Q < -4 | R -1.33 | S -1.56 | T -1.74 | V -0.752 | W -0.963 | Y -1.72
S24: A 0.0312 | C -0.737 | D < -4 | E -1.21 | F -0.927 | G -0.968 | H -1.63 | I < -4 | K -0.346 | L < -4 | M < -4 | N -0.567 | P -0.747 | Q < -4 | R -1.04 | T < -4 | V -1.87 | W -0.783 | Y -1.02
N25: A -1.3
